# From the supplement of paper PMC8728848
# This is one part of the list.
# Legend:
# Assay in all cases: glycan array binding signal (z-score within array); higher = stronger binding
# Details in all cases: glycan notation: IUPAC condensed, linker removed
# [1] = target: Gal(b1-4)GlcNAc(b1-3)Gal(b1-4)[Fuc(a1-3)]GlcNAc(b1-3)Gal(b1-4)[Fuc(a1-3)]GlcNAc
# How it was run: (§1)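 From the Consortium for Functional Glycomics database, 3228 arrays were curated, keeping only those whose protein sequence was available. Binding is given as a within-array Z-score averaged across arrays sharing a protein sequence and across linkers. Negative Z-scores can be read as non-binding.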
# [2] = target: Gal(b1-4)GlcNAc(b1-3)GalNAc
# How it was run: as §1
# [3] = target: Gal(b1-4)GlcNAc(b1-3)[Gal(b1-4)GlcNAc(b1-6)]Gal(b1-4)GlcNAc
# How it was run: as §1
# [4] = target: Gal(b1-4)GlcNAc(b1-3)[Gal(b1-4)GlcNAc(b1-6)]GalNAc
# How it was run: as §1
# [5] = target: Gal(b1-4)GlcNAc(b1-3)[GlcNAc(b1-6)]Gal(b1-4)GlcNAc
# How it was run: as §1
# [6] = target: Gal(b1-4)GlcNAc(b1-6)Gal(b1-4)GlcNAc
# How it was run: as §1
# [7] = target: Gal(b1-4)GlcNAc(b1-6)GalNAc
# How it was run: as §1
# [8] = target: Gal(b1-4)GlcNAc(b1-6)[Gal(b1-3)]GalNAc
# How it was run: as §1
# Gal3S(b1-3)GalNAc = target: Gal3S(b1-3)GalNAc
# How it was run: as §1
# Gal3S(b1-3)GlcNAc = target: Gal3S(b1-3)GlcNAc
# How it was run: as §1
# [9] = target: Gal3S(b1-3)[Fuc(a1-4)]GlcNAc
# How it was run: as §1
# Gal3S(b1-4)Glc = target: Gal3S(b1-4)Glc
# How it was run: as §1
# Gal3S(b1-4)Glc6S = target: Gal3S(b1-4)Glc6S
# How it was run: as §1
# Gal3S(b1-4)GlcNAc = target: Gal3S(b1-4)GlcNAc
# How it was run: as §1
# Gal3S(b1-4)GlcNAc6S = target: Gal3S(b1-4)GlcNAc6S
# How it was run: as §1
# [10] = target: Gal3S(b1-4)[Fuc(a1-3)]Glc
# How it was run: as §1
# [11] = target: Gal3S(b1-4)[Fuc(a1-3)]Glc6S
# How it was run: as §1
# Gal3S4S(b1-4)GlcNAc = target: Gal3S4S(b1-4)GlcNAc
# How it was run: as §1
# Gal3S6S(b1-4)GlcNAc = target: Gal3S6S(b1-4)GlcNAc
# How it was run: as §1
# Gal3S6S(b1-4)GlcNAc6S = target: Gal3S6S(b1-4)GlcNAc6S
# How it was run: as §1
# Gal4S(b1-4)GlcNAc = target: Gal4S(b1-4)GlcNAc
# How it was run: as §1
# Gal4S6S(b1-4)GlcNAc = target: Gal4S6S(b1-4)GlcNAc
# How it was run: as §1
# Gal6S(b1-4)Glc = target: Gal6S(b1-4)Glc
# How it was run: as §1
# Gal6S(b1-4)Glc6S = target: Gal6S(b1-4)Glc6S
# How it was run: as §1
# Gal6S(b1-4)GlcNAc = target: Gal6S(b1-4)GlcNAc
# How it was run: as §1
# Gal6S(b1-4)GlcNAc6S = target: Gal6S(b1-4)GlcNAc6S
# How it was run: as §1
# GalNAc(a1-3)Gal = target: GalNAc(a1-3)Gal
# How it was run: as §1
# GalNAc(a1-3)GalNAc = target: GalNAc(a1-3)GalNAc
# How it was run: as §1
# [12] = target: GalNAc(a1-3)GalNAc(a1-3)Gal(a1-4)Gal(b1-4)GlcNAc
# How it was run: as §1
# GalNAc(b1-3)Gal = target: GalNAc(b1-3)Gal
# How it was run: as §1
# [13] = target: GalNAc(b1-3)Gal(a1-4)Gal(b1-4)GlcNAc
# How it was run: as §1
# [14] = target: GalNAc(b1-3)Gal(a1-4)Gal(b1-4)GlcNAc(b1-3)Gal(b1-4)Glc
# How it was run: as §1
# [15] = target: GalNAc(b1-3)Gal(a1-6)Gal(b1-4)Glc
# How it was run: as §1
# GalNAc(b1-3)GalNAc = target: GalNAc(b1-3)GalNAc
# How it was run: as §1
# GalNAc(b1-4)GlcNAc = target: GalNAc(b1-4)GlcNAc
# How it was run: as §1
# [16] = target: GalNAc(b1-4)GlcNAc(b1-2)Man(a1-3)[GalNAc(b1-4)GlcNAc(b1-2)Man(a1-6)]Man(b1-4)GlcNAc(b1-4)GlcNAc
# How it was run: as §1
# Glc(a1-4)Glc = target: Glc(a1-4)Glc
# How it was run: as §1
# Glc(a1-6)Glc(a1-6)Glc = target: Glc(a1-6)Glc(a1-6)Glc
# How it was run: as §1
# Glc(b1-4)Glc = target: Glc(b1-4)Glc
# How it was run: as §1
# Glc(b1-6)Glc = target: Glc(b1-6)Glc
# How it was run: as §1
# GlcA(b1-3)Gal = target: GlcA(b1-3)Gal
# How it was run: as §1
# GlcA(b1-3)GlcNAc = target: GlcA(b1-3)GlcNAc
# How it was run: as §1
# GlcA(b1-6)Gal = target: GlcA(b1-6)Gal
# How it was run: as §1
# [17] = target: GlcNAc(a1-3)Gal(b1-4)GlcNAc
# How it was run: as §1
# [18] = target: GlcNAc(a1-4)Gal(b1-3)GlcNAc
# How it was run: as §1
binder,measurement,setting,value
GH98CBM51-1 (Streptococcus pneumoniae) (protein) MTYLSDMDWSSATHGDIDKTKTVQKDAPFTTGNKGEHTKISLLTSDDKVKYFDKGIGTVADSPSVISYDISGQGFEKFETYIGIDQSANSSRSDHAVVDRIEIEIDGKVVYSSSVTNPEGFRYNTQAQFISVTIPQNAKKISLKSFAGEHTWGDEVVFADAKLIKTVST,glycan array binding signal (z-score),[1],-0.195
same,glycan array binding signal (z-score),[2],-0.191
same,glycan array binding signal (z-score),[3],-0.191
same,glycan array binding signal (z-score),[4],-0.194
same,glycan array binding signal (z-score),[5],-0.187
same,glycan array binding signal (z-score),[6],-0.191
same,glycan array binding signal (z-score),[7],-0.185
same,glycan array binding signal (z-score),[8],-0.191
same,glycan array binding signal (z-score),Gal3S(b1-3)GalNAc,-0.184
same,glycan array binding signal (z-score),Gal3S(b1-3)GlcNAc,-0.175
same,glycan array binding signal (z-score),[9],-0.177
same,glycan array binding signal (z-score),Gal3S(b1-4)Glc,-0.183
same,glycan array binding signal (z-score),Gal3S(b1-4)Glc6S,-0.175
same,glycan array binding signal (z-score),Gal3S(b1-4)GlcNAc,-0.188
same,glycan array binding signal (z-score),Gal3S(b1-4)GlcNAc6S,-0.175
same,glycan array binding signal (z-score),[10],-0.181
same,glycan array binding signal (z-score),[11],-0.183
same,glycan array binding signal (z-score),Gal3S4S(b1-4)GlcNAc,-0.187
same,glycan array binding signal (z-score),Gal3S6S(b1-4)GlcNAc,-0.19
same,glycan array binding signal (z-score),Gal3S6S(b1-4)GlcNAc6S,-0.174
same,glycan array binding signal (z-score),Gal4S(b1-4)GlcNAc,-0.184
same,glycan array binding signal (z-score),Gal4S6S(b1-4)GlcNAc,-0.187
same,glycan array binding signal (z-score),Gal6S(b1-4)Glc,-0.188
same,glycan array binding signal (z-score),Gal6S(b1-4)Glc6S,-0.163
same,glycan array binding signal (z-score),Gal6S(b1-4)GlcNAc,-0.186
same,glycan array binding signal (z-score),Gal6S(b1-4)GlcNAc6S,-0.185
same,glycan array binding signal (z-score),GalNAc(a1-3)Gal,-0.186
same,glycan array binding signal (z-score),GalNAc(a1-3)GalNAc,-0.187
same,glycan array binding signal (z-score),[12],-0.187
same,glycan array binding signal (z-score),GalNAc(b1-3)Gal,-0.185
same,glycan array binding signal (z-score),[13],-0.181
same,glycan array binding signal (z-score),[14],-0.191
same,glycan array binding signal (z-score),[15],-0.189
same,glycan array binding signal (z-score),GalNAc(b1-3)GalNAc,-0.191
same,glycan array binding signal (z-score),GalNAc(b1-4)GlcNAc,-0.187
same,glycan array binding signal (z-score),[16],-0.182
same,glycan array binding signal (z-score),Glc(a1-4)Glc,-0.194
same,glycan array binding signal (z-score),Glc(a1-6)Glc(a1-6)Glc,-0.192
same,glycan array binding signal (z-score),Glc(b1-4)Glc,-0.188
same,glycan array binding signal (z-score),Glc(b1-6)Glc,-0.194
same,glycan array binding signal (z-score),GlcA(b1-3)Gal,-0.193
same,glycan array binding signal (z-score),GlcA(b1-3)GlcNAc,-0.186
same,glycan array binding signal (z-score),GlcA(b1-6)Gal,-0.19
same,glycan array binding signal (z-score),[17],-0.193
same,glycan array binding signal (z-score),[18],-0.189
